Source: PubChem BioAssay AID651567 (National Center for Advancing Translational Sciences (NCATS), 2012)
The campaign covered roughly 1,200 compounds. About 10 (0.8%) were called active. Not shown: some 4% with an inconclusive outcome. Calls follow the shape of the dose curve; as a rule, active = well fitted inhibition curve with a large enough effect; inconclusive = small, poorly fitted or top-dose-only effect; inactive = no such curve, though single readings can be large or run the other way. This is one part of the list.

assay: qHTS Assay to Find Inhibitors of Chronic Active B-Cell Receptor Signaling: Hit Validation in OCI-Ly3 Assay; details: OCI-Ly3 IkB-luciferase reporter, Chroma-Glo luminescence, 4 h; series mostly up to 46.1 µM; activity change, negative = inhibition: at the top concentration
In short: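 Readout is dual-colour luminescence: IkB-alpha-luciferase fusion (green) against unfused luciferase (red), plus their ratio, scaled between basal cells and 10 uM MG-132. OCI-Ly3 cells, 0.5% FBS IMDM, compound with doxycycline (80ng/ml solution), 4 hrs at 37C; curves fitted and classed.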
% is scaled to controls: 0 for no effect and ±100 for the full control effect.

| SMILES | activity change, negative = inhibition |
| --- | --- |
| CC1=Nc2cc(C(=O)NC3CCCC3)ccc2Sc2ccc(Cl)cc21 | inactive: -3.13% |
| Cc1onc(-c2ccccc2)c1-c1nc2cc(Cl)ccc2c(=O)o1 | inactive: -14.1% |
| CC[C@@H](C)[C@H](NC(=O)CCc1c(C)c2cc3c4c(oc3c(C)c2oc1=O)CCCC4)C(=O)O | inactive: -0.106% |
| CCN(CC)c1ccc(NC(=O)c2cc(OC)cc(OC)c2)c(C)c1 | inactive: -1.39% |
| COc1cc2c(c(OC)c1OC)-c1ccc(OC)c(=O)cc1C(NC(C)=O)CC2 (stereo unspecified) | inactive: -3.28% |
| COC(=O)c1cnc(Oc2ccc(NC(=O)NC(=O)c3c(OC)cccc3OC)cc2)cc1C(F)(F)F | inactive: -1.81% |
| Cc1cc(SCC#N)n2nc(C)c(-c3ccccc3)c2n1 | inactive: -1.85% |
| COc1cc(OC)c2c(c1)OC(=O)CC2c1cc(OC)c(OC)c(OC)c1 (stereo unspecified) | inactive: -1.85% |
| COc1ccc(C2CC(=O)Oc3cc(OC)c(OC)c(OC)c32)cc1 (stereo unspecified) | inactive: -3.69% |
| Cc1ccccc1N=Nc1c(C)[nH]n(C(N)=S)c1=O | inactive: 0.673% |
| CCCCC(=O)NC(=S)Nc1nnn(CCC)n1 | inactive: 0.346% |
| O=C(Oc1c(Cl)cc(Cl)c2cccnc12)c1cccs1 | inactive: -6.54% |
| O=C(O)CCCCCCCCc1cn(Cc2ccc(C(=O)c3ccccc3)cc2)nn1 | inactive: -2.2% |
| COC(=O)CCC(=O)NC(=S)Nc1sc(C)c(C)c1C(N)=O | inactive: -1.47% |
| CC(C)Sc1ccccc1C(=O)Nc1ccc2c(c1)n(C)c(=O)n2C | inactive: -6.52% |
| CCOC(=O)c1c(C)sc2c1N(C(C)=O)c1cc(Cl)ccc1S2 | inactive: -1.47% |
| CC1=Nc2cc(C(=O)NCC3CCCO3)ccc2Sc2ccc(C)cc21 (stereo unspecified) | inactive: -2.23% |
| Cc1nnc(C)n1/N=C/c1cc2ccccc2nc1Cl | inactive: -2.19% |
| C#CCOc1ccc(C2C3=C(COC3=O)Nc3cc4c(cc32)OCO4)cc1OC (stereo unspecified) | inactive: -3.1% |
| Cc1ccc(/C=N/NC(=O)COc2ccccc2-c2ccccc2)cc1 | inactive: -0.917% |
| COc1cccc(N2CCN(C(=O)c3ccc(CS(=O)c4ccccc4C)o3)CC2)c1 (stereo unspecified) | inactive: -3.35% |
| NNC(=O)c1[nH]c2ccccc2c1-c1ccccc1 | inactive: -4.38% |
| COc1ccc(NC(=O)C(=O)c2cn(CC(=O)N3CCCC3)c3ccccc23)cc1 | inactive: -8.07% |
| CCCCOc1ccc(Br)cc1/C(C)=N/NC1=NCCN1 | inactive: -0.15% |
| CCn1ncc(C2=NOC(C(=O)NCc3ccc(Cl)cc3)C2)c1C (stereo unspecified) | inactive: -2.34% |
| CCn1c2ccccc2c2cc(Nc3cc(C)nc4ncnn34)ccc21 | inactive: -8.56% |

| SMILES | activity change, negative = inhibition |
| --- | --- |
| Cc1cccc(C)c1-n1c(C)cc(/C=N/NC(N)=S)c1C | inactive: -0.724% |
| CCOC(=O)Cc1csc(NC(=S)NC(=O)c2ccccc2)n1 | inactive: -1.09% |
| O=C(CSc1nc2ccccc2c(=O)n1-c1ccccc1F)NC1CC1 | inactive: -0.149% |
| CCOc1cc(-c2cc(-c3ccc(NC(C)=O)cc3)nc(N)c2C#N)ccc1O | inactive: -2.41% |
| CN(CC(=O)Nc1ccccc1C(F)(F)F)C(=O)c1ccccc1Sc1ccccc1C#N | inactive: 0.0132% |
| N=C1SCC(=O)N1c1ncc(Cc2cccc(Cl)c2)s1 | inactive: 27.2% |
| CCN(CC)c1ccc(-c2nn3c(-c4ccccc4OC)nnc3s2)cc1 | inactive: -2.37% |
| CN(C)NC(=S)NC(=O)C12CC3CC(CC(C3)C1)C2 | inactive: 0.0112% |
| Nc1ncnc2c1ncn2[C@@H]1O[C@H](CNCc2cccc(C#Cc3ccccc3)c2)[C@@H](O)[C@H]1O | inactive: -0.0698% |
| CCOC(=O)c1ccccc1NC(=O)Cn1c(-c2nonc2N)nc2ccccc21 | inactive: -3.47% |
| CCN(CC)S(=O)(=O)c1ccc2c(c1)c(=O)c(C(=O)NCCc1ccc(OC)c(OC)c1)cn2C | inactive: -0.826% |
| O=S(=O)(Nc1cccc2cccnc12)c1ccccc1 | inactive: 36.7% |
| CCOC(=O)C(NCc1ccccc1)(NC(=O)c1ccccc1)C(F)(F)F (stereo unspecified) | inactive: 0.0509% |
| CC(C)N1C(=O)/C(=C/c2nc3ccccc3c(=O)n2-c2ccccc2)c2ccccc21 | inactive: -21.8% |
| COc1ccc(/C=N/NC(=O)c2cc3c(OC)ccc(OC)c3[nH]2)cc1O | inactive: -1.87% |
| COC(=O)[C@@H]1[C@@H](C#N)C2(c3ccccc3-c3ccccc32)N(c2ccc(Cl)cc2)N1C#N | inactive: 0.249% |
| CC/C(=N/Nc1ccc(Cl)cc1)c1cnnc(SC)n1 | inactive: -0.51% |
| Cc1cc(/C=C(\C#N)C(=O)N2CCCCC2)cc(C)c1O | inactive: -0.53% |
| C/C(=N\NC(=O)COc1ccccc1-c1ccccc1)c1ccccn1 | inactive: -14.3% |
| CCOC(=O)c1[nH]c(C)c(C(=O)c2ccc(C)cc2)c1C | inactive: -3.19% |
| COc1ccc(OCC(O)CN2CCN(c3ccccc3)CC2)cc1 (stereo unspecified) | inactive: -0.192% |
| Cc1ccc(S(=O)(=O)n2cc(-c3ccccc3)c3ccccc32)cc1 | inactive: -3.09% |
| Cc1ccc2nc(SCC(=O)Nc3cc(C(F)(F)F)ccc3N3CCOCC3)[nH]c2c1 | inactive: -7.54% |
| COC(=O)CSC1=C(C#N)C(c2ccc(C)o2)CC(=O)N1 (stereo unspecified) | inactive: -0.392% |
| COc1cc(OC)cc(-c2cc3cc4c(cc3cn2)OCO4)c1 | inactive: -7.83% |
| CCn1c(=S)[nH]c2cc(S(=O)(=O)N3CCOCC3)ccc21 | inactive: -2.43% |

| SMILES | activity change, negative = inhibition |
| --- | --- |
| COc1cc(OC)cc(C(=O)NCc2cc(C)nc3ccccc23)c1 | inactive: -1.05% |
| O=[N+]([O-])c1ccc(O)c2ncccc12 | inactive: -2.58% |
| CCOC(=O)C(C)Oc1cccc2c(=O)n(CC(=O)NCc3ccc4c(c3)OCO4)ccc12 (stereo unspecified) | inactive: -1.37% |
| Cc1ccc(OCCN2C(=O)C(=O)c3cc(C)ccc32)cc1 | inactive: -1.57% |
| Cc1ccc(CCC(=O)Nc2ncc(Cc3cccc(Cl)c3Cl)s2)o1 | inactive: -2.2% |
| CCCc1nnc(NC(=S)Nc2ccccc2)s1 | inactive: 23.3% |
| Cc1cc(C(=O)NN)c2cc(Br)ccc2n1 | inactive: -0.374% |
| CCOc1ccc2[nH]c(C(=O)N/N=C/c3ccc(OC)cc3)cc2c1 | inactive: -3.35% |
| Cc1ccc(N(C)S(=O)(=O)c2ccc(-c3cnc(C4CC4)o3)cc2)cc1 | inactive: -11% |
| CC(=O)OCC(=O)[C@@]1(O)CC[C@H]2[C@@H]3CCC4=CC(=O)C=C[C@]4(C)[C@H]3[C@@H](O)C[C@@]21C | inactive: -0.34% |
| Cc1cn(-c2cccnc2)c(C)c1CNC[C@H]1O[C@@H](n2cnc3c(N)ncnc32)[C@H](O)[C@@H]1O | inactive: -0.0853% |
| O=[N+]([O-])c1cc(F)c2cccnc2c1O | inactive: 0.442% |
| O=[N+]([O-])c1cc(Cl)c(O)c2ncccc12 | inactive: -1.58% |
| CCOc1ccc(NC(=S)N(CCc2c(C)[nH]c3ccccc23)Cc2cccnc2)cc1 | inactive: -3.9% |
| CNC(=O)c1cccc(NC(=O)C(C)c2ccc3cc(OC)ccc3c2)c1 (stereo unspecified) | inactive: -3.81% |
| CCc1c(C)nc(SCCOc2ccc(OC)cc2)[nH]c1=O | inactive: -6.72% |
| CC(=O)Nc1ccc(S(=O)(=O)NCC(=O)OC(C)c2ccccc2Cl)cc1 (stereo unspecified) | inactive: -1.4% |
| Cc1ccc(S(=O)(=O)Nc2cccc(-c3ccc4nncn4n3)c2)cc1 | inactive: -1.41% |
| Cc1ccc(Nc2nc(-c3c(C)nc4ncccn34)cs2)cc1 | inactive: -13% |
| CC(=O)c1ccc(Oc2cc(C)nc(-n3nc(C)cc3C)n2)cc1 | inactive: -2.39% |
| O=C(Cc1n[nH]c(=O)c2ccccc12)OCC(=O)c1ccc2c(c1)OCCO2 | inactive: -2.29% |
| CCCNc1ccc(C(=O)OCC)cc1[N+](=O)[O-] | inactive: -0.0141% |
| CCN(CC)c1ccc2c(cc1=O)[C@@H](NC)CCc1cc(OC)c(OC)c(OC)c1-2 | inactive: -1.8% |
| Cc1ccccc1-c1nc2c3ccccc3nc(=S)n2[nH]1 | inactive: -8.67% |
| O=C(Cc1ccc(-n2c(=O)c3ccccc3n(Cc3ccc(F)cc3)c2=O)cc1)NCC1CCCO1 (stereo unspecified) | inactive: -2.27% |
| CCOC(=O)C1=C(C)NC(C)=C(C(=O)OCC)C1C(=O)OCC(=O)NCc1ccccc1OC | inactive: -0.885% |

| SMILES | activity change, negative = inhibition |
| --- | --- |
| CCOC(=O)C(C)Oc1cccc2c(=O)n(CC(=O)NCc3ccc(F)cc3)ccc12 (stereo unspecified) | inactive: -1.8% |
| CCN1C(=O)c2cccc3c(NC(=O)c4ccc(OC)c(OC)c4)ccc1c23 | inactive: -6.01% |
| C=CCNC(=S)N/N=C/c1ccc(C)cc1C | inactive: -2.82% |
| COc1ccc(OC)c(/C=C/c2ccc3cccc(O)c3n2)c1 | inactive: 27.6% |
| CCN(CC)S(=O)(=O)c1ccc(C(=O)NCCSc2c[nH]c3ccccc23)cc1 | inactive: -2.86% |
| NNC(=O)c1cc2cc(OC(F)(F)F)ccc2[nH]1 | inactive: 0.0644% |
| O=C(CSc1ncccc1C(=O)O)c1ccc2ccccc2c1 | inactive: -1.31% |
| COc1cc(C(=O)NC2CCN(Cc3nnnn3Cc3ccc(F)cc3)CC2)cc(OC)c1OC | inactive: -0.678% |
| Cc1nnc2sc(-c3csc4c3CCCC4)nn12 | inactive: -0.641% |
| O=C1N/C(=C/c2ccc(N3CCOCC3)o2)C(=O)N1c1cccc(Cl)c1 | inactive: -6% |
| CCc1nc2ccccc2c(C(=O)OCc2nc3ccccc3c(=O)[nH]2)c1C | inactive: -2.85% |
| CCc1nnc(NC(=O)CSc2nnc(-c3ccccc3NC(=O)c3ccccc3)o2)s1 | inactive: -0.743% |
| COc1cc(C2=NOC(C(=O)NCc3ccc(F)cc3)C2)cc(OC)c1OC (stereo unspecified) | inactive: -9.99% |
| COc1ccc(CCCC(=O)N/N=C/c2cccc(OC)c2O)cc1C | inactive: -1.47% |
| O=c1c2c(-c3ccco3)csc2nc(SCc2cn3cccnc3n2)n1-c1ccccc1 | inactive: -0.922% |
| CNc1nc(N)c([N+](=O)[O-])c(NCc2ccccc2)n1 | inactive: 0.289% |
| CCOc1ccc2c(c1)C(C)=CC(C)(C)N2S(=O)(=O)c1ccc(NC(C)=O)cc1 | inactive: -3.37% |
| CCCCCC1CCC(c2n[nH]c(=S)n2C)CC1 (stereo unspecified) | inactive: -5.34% |
| Cn1c(=O)[nH]c(=O)c2c1nc(SCC(N)=O)n2Cc1cccc(Br)c1 | inactive: -8.26% |
| O=C(CSc1ncn[nH]1)Nc1nnc(-c2ccccc2)s1 | inactive: 31.6% |
| O=C(CN1CCC(NC(=O)Nc2ccc(F)cc2)CC1)Nc1ccccc1[N+](=O)[O-] | inactive: -0.409% |
| CCc1ccc2oc(=O)cc(CN3CCCCC3C)c2c1 (stereo unspecified) | inactive: -1.04% |
| Nc1ncnc2c1ncn2[C@@H]1O[C@H](CNC(=O)[C@@H]2CCCN2S(=O)(=O)c2ccc(F)cc2)[C@@H](O)[C@H]1O | inactive: 0.0103% |
